Results reported in article PMC9303752.

Biological target: T1, Properdin (purified from human serum, Quidel A412) (human), P27918
T1 chain: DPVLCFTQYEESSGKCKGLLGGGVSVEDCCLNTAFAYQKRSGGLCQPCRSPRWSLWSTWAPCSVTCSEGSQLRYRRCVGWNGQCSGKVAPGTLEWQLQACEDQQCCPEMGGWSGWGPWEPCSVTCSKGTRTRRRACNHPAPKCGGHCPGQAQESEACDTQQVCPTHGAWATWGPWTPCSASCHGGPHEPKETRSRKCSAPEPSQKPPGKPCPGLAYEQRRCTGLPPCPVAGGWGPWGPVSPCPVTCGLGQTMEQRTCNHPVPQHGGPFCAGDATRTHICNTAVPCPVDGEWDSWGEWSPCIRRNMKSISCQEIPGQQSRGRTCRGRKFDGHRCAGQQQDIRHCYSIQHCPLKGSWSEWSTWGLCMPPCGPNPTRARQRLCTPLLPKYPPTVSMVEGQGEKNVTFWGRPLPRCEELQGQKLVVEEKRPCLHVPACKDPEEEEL
Test: SEC
Conditions: remark: other sources report otherwise

stoichiometry N: 2 and 3 and 4
B1: Properdin (purified from human serum, Quidel A412), P27918 28-469 (natural protein)
chain: T1 chain

Where “and” joins values, the source holds several entries; their conditions need not be identical. Equal entries are not always repeated.
